Each structure is given as a SMILES string. Where only a bound is given, the exact number is not on record here.

The test system of this assay is Influenza A virus. Description: microbe, parasite or virus in culture. The note with it: A/Hebei Xinhua/SWL1106/2017 (H1N1) pdm09, MDCK.
Usually EC50 stands for the concentration that produces a half-maximal response. Low values mean greater potency, high ones weaker potency. As to `NC12CC3CC(CC(C3)C1)C2` [AMANTADINE], the EC50 was > 533 µM.
As to `CCOC(=O)C1=C[C@@H](OC(CC)CC)[C@H](NC(C)=O)[C@@H](N)C1` [OSELTAMIVIR], the concentration giving a half-maximal response (EC50) was > 244 µM.
On to `CC(=O)N[C@H]1[C@H]([C@H](O)[C@H](O)CO)OC(C(=O)O)=C[C@@H]1NC(=N)N` [ZANAMIVIR], for which the EC50 was 5.09 µM.

The record behind these values is ChEMBL document CHEMBL4732179, “Design, synthesis, and bioassay of 4-thiazolinone derivatives as influenza neuraminidase inhibitors” (Eur J Med Chem, 2021).
